In patent US20210024610A1 (Hoffmann-La Roche, published 2021):

Legend:
[1] = target: T1, human Her2 expressed on the cell surface of tumor cells (SK-Br3, NCI-N87, KPL-4) (human, UniProt P04626); experiment: flow cytometry on SK-Br3 cells, PE anti-human IgG secondary
T1 construct: also called ErbB2

[2] = target: T1, human Her2 expressed on the cell …; experiment: flow cytometry on NCI-N87 cells, PE anti-human IgG secondary
[3] = target: human 4-1BB expressed on cells (Jurkat-hu4-1BB-NFκB-luc2 reporter cells; human T cells in PBMC) (human, UniProt Q07011 24-255); experiment: cell-based or functional assay
[4] = target: T1, human Her2 expressed on the cell …; experiment: flow cytometry on KPL-4 cells, PE anti-human IgG secondary

Sequence of UniProt Q07011 (Q07011 24-255): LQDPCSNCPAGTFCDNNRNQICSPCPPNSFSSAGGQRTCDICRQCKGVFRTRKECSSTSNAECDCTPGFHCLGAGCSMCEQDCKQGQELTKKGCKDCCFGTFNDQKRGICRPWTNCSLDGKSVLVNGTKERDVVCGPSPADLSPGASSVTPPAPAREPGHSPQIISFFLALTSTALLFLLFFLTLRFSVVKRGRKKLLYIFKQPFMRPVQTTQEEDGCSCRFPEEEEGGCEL

B1: Her2(aff-PER)-4-1BBL (monovalent Her2(aff-PER) split trimeric 4-1BB ligand Fc (kih) fusion antigen binding molecule containing CH1-CL crossover and charged … (Fc fusion)
heavy: EVQLVESGGGLVQPGGSLRLSCAASGFTFNDYTMDWVRQAPGKGLEWVADVNPNSGGSIVNRRFKGRFTLSVDRSKNTLYLQMNSLRAEDTAVYYCARNLGPFFYFDYWGQGTLVTVSSASTKGPSVFPLAPSSKSTSGGTAALGCLVKDYFPEPVTVSWNSGALTSGVHTFPAVLQSSGLYSLSSVVTVPSSSLGTQTYICNVNHKPSNTKVDKKVEPKSCDKTHTCPPCPAPEAAGGPSVFLFPPKPKDTLMISRTPEVTCVVVDVSHEDPEVKFNWYVDGVEVHNAKTKPREEQYNSTYRVVSVLTVLHQDWLNGKEYKCKVSNKALGAPIEKTISKAKGQPREPQVCTLPPSRDELTKNQVSLSCAVKGFYPSDIAVEWESNGQPENNYKTTPPVLDSDGSFFLVSKLTVDKSRWQQGNVFSCSVMHEALHNHYTQKSLSLSP
light: DIQMTQSPSSLSASVGDRVTITCKASQDVSTAVAWYQQKPGKAPKLLIYSASFRYTGVPSRFSGSRSGTDFTLTISSLQPEDFATYYCQQHYTTPPTFGQGTKVEIKRTVAAPSVFIFPPSDEQLKSGTASVVCLLNNFYPREAKVQWKVDNALQSGNSQESVTEQDSKDSTYSLSSTLTLSKADYEKHKVYACEVTHQGLSSPVTKSFNRGEC
chain 1: REGPELSPDDPAGLLDLRQGMFAQLVAQNVLLIDGPLSWYSDPGLAGVSLTGGLSYKEDTKELVVAKAGVYYVFFQLELRRVVAGEGSGSVSLALHLQPLRSAAGAAALALTVDLPPASSEARNSAFGFQGRLLHLSAGQRLGVHLHTEARARHAWQLTQGATVLGLFRVTPEIPAGLGGGGSGGGGSREGPELSPDDPAGLLDLRQGMFAQLVAQNVLLIDGPLSWYSDPGLAGVSLTGGLSYKEDTKELVVAKAGVYYVFFQLELRRVVAGEGSGSVSLALHLQPLRSAAGAAALALTVDLPPASSEARNSAFGFQGRLLHLSAGQRLGVHLHTEARARHAWQLTQGATVLGLFRVTPEIPAGLGGGGSGGGGSRTVAAPSVFIFPPSDRKLKSGTASVVCLLNNFYPREAKVQWKVDNALQSGNSQESVTEQDSKDSTYSLSSTLTLSKADYEKHKVYACEVTHQGLSSPVTKSFNRGE[here human IgG1 Fc with changes without letters]
chain 2: REGPELSPDDPAGLLDLRQGMFAQLVAQNVLLIDGPLSWYSDPGLAGVSLTGGLSYKEDTKELVVAKAGVYYVFFQLELRRVVAGEGSGSVSLALHLQPLRSAAGAAALALTVDLPPASSEARNSAFGFQGRLLHLSAGQRLGVHLHTEARARHAWQLTQGATVLGLFRVTPEIPAGLGGGGSGGGGSASTKGPSVFPLAPSSKSTSGGTAALGCLVEDYFPEPVTVSWNSGALTSGVHTFPAVLQSSGLYSLSSVVTVPSSSLGTQTYICNVNHKPSNTKVDEKVEPKSC
notes: Human IgG1 Fc knob-into-hole with P329G, L234A, L235A
[1]
  EC50: 7.3 nM
[2]
  EC50: 4.3 nM
[3]
  EC50 of NFκB-activation-induced Luciferase activity, Jurkat-hu4-1BB-NFκB-luc2 reporter cells, with NCI-N87 cells: 0.05 nM
  EC50 of NFκB-activation-induced Luciferase activity, Jurkat-hu4-1BB-NFκB-luc2 reporter cells, with SK-Br3 cells: 0.03 nM
[4]
  EC50: 0.35 nM
